# Source: the supplement of paper PMC8728848
# The list shows a part of the results.
# B1: MIC1 (Toxoplasma gondii), O00834 (protein)
# chain: MGQALFLTVLLPVLFGVGPEAYGEASHSHSPASGRYIQQMLDQRCQEIAAELCQSGLRKMCVPSSRIVARNAVGITHQNTLQWRCFDTASLLESNQENNGVNCVDDCGHTIPCPGGVHRQNSNHATRHEILSKLVEEGVQRFCSPYQASANKYCNDKFPGTIARRSKGFGNNVEVAWRCYEKASLLYSVYAECASNCGTTWYCPGGRRGTSTELDKRHYTEEEGIRQAIGSVDSPCSEVEVCLPKDENPPLCLDESGQISRTGGGPPSQPPEMQQPADRSDERGGGKEQSPGGEAQPDHPTKGGNIDLPEKSTSPEKTPKTEIHGDSTKATLEEGQQLTLTFISTKLDVAVGSCHSLVANFLDGFLKFQTGSNSAFDVVEVEEPAGPAVLTIGLGHKGRLAVVLDYTRLNAALGSAAYVVEDSGCSSSEEVSFQGVGSGATLVVTTLGESPTAVSA
# Legend:
# Experiment in all cases: glycan array binding signal (z-score within array); higher = stronger binding
# Conditions in all cases: glycan notation: IUPAC condensed, linker removed
# [1] = target: Man(a1-3)[Man(a1-6)]Man(a1-6)[Man(a1-3)]Man
# In short: (§1)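 Glycan array data were curated from 3228 arrays in the Consortium for Functional Glycomics database and kept only where the protein sequence was available. Glycan names were converted to IUPAC-condensed notation, and columns mapping to the same glycan were averaged. The binding signal is a within-array Z-score, averaged across arrays of the same protein sequence at different concentrations or buffers and across linkers. Negative Z-scores can be read as non-binding.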
# [2] = target: Man(a1-3)[Man(a1-6)]Man(a1-6)[Man(a1-3)]Man(b1-4)GlcNAc(b1-4)GlcNAc
# In short: as §1
# [3] = target: Man(a1-3)[Man(a1-6)]Man(b1-4)GlcNAc(b1-4)GlcNAc
# In short: as §1
# Man(a1-6)Man = target: Man(a1-6)Man
# In short: as §1
# Man(b1-4)GlcNAc = target: Man(b1-4)GlcNAc
# In short: as §1
# Neu5Ac(a2-3)Gal = target: Neu5Ac(a2-3)Gal
# In short: as §1
# [4] = target: Neu5Ac(a2-3)Gal(b1-3)GalNAc
# In short: as §1
# [5] = target: Neu5Ac(a2-3)Gal(b1-3)GalNAc(b1-3)Gal(a1-4)Gal(b1-4)Glc
# In short: as §1
# [6] = target: Neu5Ac(a2-3)Gal(b1-3)GalNAc(b1-3)Gal(b1-4)GlcNAc
# In short: as §1
# [7] = target: Neu5Ac(a2-3)Gal(b1-3)GalNAc(b1-4)[Neu5Ac(a2-3)]Gal(b1-4)Glc
# In short: as §1
# [8] = target: Neu5Ac(a2-3)Gal(b1-3)GalNAc6S
# In short: as §1
# [9] = target: Neu5Ac(a2-3)Gal(b1-3)GlcNAc
# In short: as §1
# [10] = target: Neu5Ac(a2-3)Gal(b1-3)GlcNAc(b1-3)Gal(b1-3)GlcNAc
# In short: as §1
# [11] = target: Neu5Ac(a2-3)Gal(b1-3)GlcNAc6S
# In short: as §1
# [12] = target: Neu5Ac(a2-3)Gal(b1-3)[Fuc(a1-4)]GlcNAc
# In short: as §1
# [13] = target: Neu5Ac(a2-3)Gal(b1-3)[Fuc(a1-4)]GlcNAc(b1-3)Gal(b1-4)[Fuc(a1-3)]GlcNAc
# In short: as §1
# [14] = target: Neu5Ac(a2-3)Gal(b1-3)[Neu5Ac(a2-3)Gal(b1-4)]GlcNAc
# In short: as §1
# [15] = target: Neu5Ac(a2-3)Gal(b1-3)[Neu5Ac(a2-6)]GalNAc
# In short: as §1
# Neu5Ac(a2-3)Gal(b1-4)Glc = target: Neu5Ac(a2-3)Gal(b1-4)Glc
# In short: as §1
# [16] = target: Neu5Ac(a2-3)Gal(b1-4)GlcNAc
# In short: as §1
# [17] = target: Neu5Ac(a2-3)Gal(b1-4)GlcNAc(b1-2)Man(a1-3)[GlcNAc(b1-2)Man(b1-4)GlcNAc(b1-2)Man(a1-6)]Man(b1-4)GlcNAc(b1-4)GlcNAc
# In short: as §1
# [18] = target: Neu5Ac(a2-3)Gal(b1-4)GlcNAc(b1-2)Man(a1-3)[Neu5Ac(a2-6)Gal(b1-4)GlcNAc(b1-2)Man(a1-6)]Man(b1-4)GlcNAc(b1-4)GlcNAc
# In short: as §1
# [19] = target: Neu5Ac(a2-3)Gal(b1-4)GlcNAc(b1-3)Gal(b1-3)GlcNAc
# In short: as §1
# [20] = target: Neu5Ac(a2-3)Gal(b1-4)GlcNAc(b1-3)Gal(b1-4)GlcNAc
# In short: as §1
# [21] = target: Neu5Ac(a2-3)Gal(b1-4)GlcNAc(b1-3)Gal(b1-4)GlcNAc(b1-3)Gal(b1-4)GlcNAc
# In short: as §1
# [22] = target: Neu5Ac(a2-3)Gal(b1-4)GlcNAc(b1-3)Gal(b1-4)[Fuc(a1-3)]GlcNAc
# In short: as §1
# [23] = target: Neu5Ac(a2-3)Gal(b1-4)GlcNAc(b1-6)[Gal(b1-3)]GalNAc
# In short: as §1
# [24] = target: Neu5Ac(a2-3)Gal(b1-4)GlcNAc(b1-6)[Neu5Ac(a2-3)Gal(b1-3)]GalNAc
# In short: as §1
# [25] = target: Neu5Ac(a2-3)Gal(b1-4)GlcNAc6S
# In short: as §1
# [26] = target: Neu5Ac(a2-3)Gal(b1-4)[Fuc(a1-3)]GlcNAc
# In short: as §1
# [27] = target: Neu5Ac(a2-3)Gal(b1-4)[Fuc(a1-3)]GlcNAc(b1-3)Gal
# In short: as §1
# [28] = target: Neu5Ac(a2-3)Gal(b1-4)[Fuc(a1-3)]GlcNAc(b1-3)Gal(b1-4)GlcNAc
# In short: as §1
# [29] = target: Neu5Ac(a2-3)Gal(b1-4)[Fuc(a1-3)]GlcNAc(b1-3)Gal(b1-4)[Fuc(a1-3)]GlcNAc(b1-3)Gal(b1-4)[Fuc(a1-3)]GlcNAc
# In short: as §1
# [30] = target: Neu5Ac(a2-3)Gal(b1-4)[Fuc(a1-3)]GlcNAc(b1-6)[Gal(b1-3)]GalNAc
# In short: as §1
# [31] = target: Neu5Ac(a2-3)Gal(b1-4)[Fuc(a1-3)]GlcNAc6S
# In short: as §1
# [32] = target: Neu5Ac(a2-3)Gal6S(b1-4)GlcNAc
# In short: as §1
# [33] = target: Neu5Ac(a2-3)Gal6S(b1-4)[Fuc(a1-3)]GlcNAc
# In short: as §1
# Neu5Ac(a2-3)GalNAc = target: Neu5Ac(a2-3)GalNAc
# In short: as §1
# [34] = target: Neu5Ac(a2-3)GalNAc(b1-4)GlcNAc
# In short: as §1
# [35] = target: Neu5Ac(a2-3)[GalNAc(b1-4)]Gal(b1-4)Glc
# In short: as §1
# [36] = target: Neu5Ac(a2-3)[GalNAc(b1-4)]Gal(b1-4)GlcNAc
# In short: as §1
# [37] = target: Neu5Ac(a2-3)[Neu5Ac(a2-6)]GalNAc
# In short: as §1
# Neu5Ac(a2-6)Gal = target: Neu5Ac(a2-6)Gal
# In short: as §1
# Neu5Ac(a2-6)Gal(b1-4)Glc = target: Neu5Ac(a2-6)Gal(b1-4)Glc
# In short: as §1
# [38] = target: Neu5Ac(a2-6)Gal(b1-4)GlcNAc
# In short: as §1
binder,measurement,setting,value
B1,glycan array binding signal (z-score),[1],-0.2
same,glycan array binding signal (z-score),[2],-0.244
same,glycan array binding signal (z-score),[3],-0.289
same,glycan array binding signal (z-score),Man(a1-6)Man,-0.154
same,glycan array binding signal (z-score),Man(b1-4)GlcNAc,-0.1
same,glycan array binding signal (z-score),Neu5Ac(a2-3)Gal,-0.068
same,glycan array binding signal (z-score),[4],-0.13
same,glycan array binding signal (z-score),[5],-0.265
same,glycan array binding signal (z-score),[6],-0.358
same,glycan array binding signal (z-score),[7],-0.19
same,glycan array binding signal (z-score),[8],-0.097
same,glycan array binding signal (z-score),[9],-0.262
same,glycan array binding signal (z-score),[10],-0.175
same,glycan array binding signal (z-score),[11],0.131
same,glycan array binding signal (z-score),[12],-0.235
same,glycan array binding signal (z-score),[13],-0.334
same,glycan array binding signal (z-score),[14],4.31
same,glycan array binding signal (z-score),[15],2.18
same,glycan array binding signal (z-score),Neu5Ac(a2-3)Gal(b1-4)Glc,-0.2
same,glycan array binding signal (z-score),[16],1.57
same,glycan array binding signal (z-score),[17],3.01
same,glycan array binding signal (z-score),[18],2.72
same,glycan array binding signal (z-score),[19],-0.139
same,glycan array binding signal (z-score),[20],-0.368
same,glycan array binding signal (z-score),[21],-0.289
same,glycan array binding signal (z-score),[22],-0.229
same,glycan array binding signal (z-score),[23],-0.177
same,glycan array binding signal (z-score),[24],-0.104
same,glycan array binding signal (z-score),[25],6.25
same,glycan array binding signal (z-score),[26],-0.152
same,glycan array binding signal (z-score),[27],0.023
same,glycan array binding signal (z-score),[28],-0.303
same,glycan array binding signal (z-score),[29],-0.178
same,glycan array binding signal (z-score),[30],0.387
same,glycan array binding signal (z-score),[31],-0.211
same,glycan array binding signal (z-score),[32],-0.301
same,glycan array binding signal (z-score),[33],-0.178
same,glycan array binding signal (z-score),Neu5Ac(a2-3)GalNAc,-0.035
same,glycan array binding signal (z-score),[34],-0.232
same,glycan array binding signal (z-score),[35],2.82
same,glycan array binding signal (z-score),[36],5.43
same,glycan array binding signal (z-score),[37],-0.313
same,glycan array binding signal (z-score),Neu5Ac(a2-6)Gal,-0.007
same,glycan array binding signal (z-score),Neu5Ac(a2-6)Gal(b1-4)Glc,-0.281
same,glycan array binding signal (z-score),[38],-0.072
